Assay results reported in PubChem BioAssay AID504444 (National Center for Advancing Translational Sciences (NCATS), 2011).
Where “and” joins values, the source holds several entries; their conditions need not be identical. Identical values can stand only once. About 7,500 (2.1%) of roughly 360,000 compounds were called active. About 20% were inconclusive and are not listed. Calls follow the shape of the dose curve; as a rule, active = well fitted inhibition curve with a large enough effect; inconclusive = small, poorly fitted or top-dose-only effect, or effect the other way; inactive = flat fitted curve, though single readings scatter. Only a part is listed here, and it is no random draw. Some structures have more than one record in an assay (separate samples or runs), and their calls can disagree.

experiment: Nrf2 qHTS screen for inhibitors; details: A549 ARE-Fluc reporter, luciferase luminescence, 18-24 h; series mostly up to 46 µM; activity change, negative = inhibition: at the top concentration; also: nearly all actives have a fitted effect of over 60% in size
Procedure, shortened: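 Quantitative HTS in A549 cells stably bearing an antioxidant response element-firefly luciferase construct. Inhibition of Nrf2-driven transcription was scored by luminescence after 18-24 h of compound exposure at 37 °C.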
% is scaled to controls: 0 for no effect and ±100 for the full control effect; potency is read from the fitted curve at half-maximal effect.

SMILES	activity change, negative = inhibition	Potency
COc1cccc(CNC(=O)CCS(=O)(=O)c2ccc3c(c2)CC(C)N3C(=O)C2CC2)c1 (stereo unspecified)	inactive: 20.8%	
CC(=O)N1N=C(c2cccc(NS(=O)(=O)c3ccc(C)cc3)c2)CC1c1ccco1 (stereo unspecified)		active: 23.1 µM
Cn1cc(/C=C2\SC(=O)N(c3ccccc3)C2=O)c2ccccc21	inactive: 1.59%	
CC(C)(C)OC(=O)C[C@@H]1C/C=C\C[C@H](CC(=O)N(CCO)Cc2ccccc2)C(=O)NC[C@H](c2ccccc2)OC1=O	inactive: -11%	
CC(=O)Nc1ccc(SCC(CC(C)C)N2CCN(CC(C)C)CCC2=O)cc1 (stereo unspecified)	inactive: 10.8%	
CCOC(=O)c1cc2c(c(-c3ccccc3)n1)[C@@H](CCO)N(S(=O)(=O)C(C)(C)C)C2	inactive: -6.14%	
COc1ccccc1N1CCN(C(=O)c2ccc3c(c2)CCN3S(=O)(=O)c2ccccc2)CC1	inactive: -2.06%	
O=C(NCc1ccccc1)C1=C[C@@H](c2ccc(C(F)(F)F)cc2)C[C@@H](OCCCCO)O1	inactive: 2.73%	
COc1ccc(/C=C2\CCCC3C2=NN(C(=O)COC(=O)CNC(=O)c2ccccc2)C3c2ccc(OC)cc2)cc1 (stereo unspecified)		active: 13 µM
CCO/C=C1\C(=O)N(CC)c2ccccc21	inactive: -17.2%	
CC(=O)Nc1ccc(Nc2nnc(-c3ccc(C)c(S(N)(=O)=O)c3)c3ccccc23)cc1	inactive: -23.6%	
COc1ccc(N(CC(=O)N2CCN(c3ccccc3F)CC2)S(=O)(=O)c2c(C)n[nH]c2C)cc1	inactive: -9.35%	
Oc1ccc(C[C@H]2CNCCN2CCc2cc(C(F)(F)F)cc(C(F)(F)F)c2)cc1	inactive: 7.64%	
CCC(=O)Nc1ccc(C(=O)OCC(=O)c2ccc(C)c([N+](=O)[O-])c2)cc1		active: 7.31 µM
C[C@]12C(=O)N(c3cccc(F)c3)C(=O)N1[C@H]1c3ccccc3OC[C@@H]1[C@H]2c1ccccc1	inactive: -23.5%	
CCOC(=O)c1[nH]cnc1C(=O)Nc1ccc(F)cc1	inactive: -17.4%	
CCC(=O)Nc1nnc(S(=O)(=O)N2CCc3ccccc32)s1	inactive: -9.43%	
COc1cc2ccnc(Cc3cccc(OC)c3OC)c2cc1OC		active: 3.66 µM
O=C(CN1C2CCCC1CC(NC(=O)C1CCCCC1)C2)Nc1ccccc1C(F)(F)F (stereo unspecified)		active: 23.1 µM

SMILES	activity change, negative = inhibition	Potency
O=C1NC[C@@H](c2ccccc2)OC(=O)[C@H](Cc2ccc(F)cc2)CC/C=C/C[C@H]1CC(=O)N(CCO)Cc1ccccc1	inactive: -7.42%	
COc1ccccc1OCC(O)CN1CCN(CC(=O)Nc2c(C)cccc2C)CC1 (stereo unspecified)	inactive: 4.87%	
CCN(c1ccccc1)S(=O)(=O)c1nnc(NC(=O)c2ccco2)s1	inactive: 7.47%	
O=C1CCCC2=C1[C@@]1(CCC(c3ccccc3)C1)N=C(Nc1nc3ccccc3o1)N2 (stereo partly specified)	inactive: -25.3%	
COC(=O)c1cc(S(=O)(=O)NCC2CCN(Cc3ccc(C)cc3)CC2)c[nH]1	inactive: -5.69%	
NC(=O)C1=C[C@H](c2csc3ccccc23)C[C@H](OCc2ccc(CO)cc2)O1	inactive: 21.7%	
COc1ccc(C2c3ccc4ccccc4c3Oc3ncn(CCN4CCOCC4)c(=N)c32)cc1OC (stereo unspecified)	inactive: -0.509%	
COc1ccc(CN(C)C(=O)CCC(=O)N2CCN(S(=O)(=O)c3ccc(Cl)cc3)CC2)c(OC)c1		active: 11.6 µM
CC(=O)N1CCC[C@H]1C(=O)O	inactive: -8.87%	
CC(=O)C[C@H](O)CC(=O)[C@H]1OC(=O)[C@@H](C)C/C=C\Cc2ccccc21	inactive: 11.3%	
CC1CCN(C(=O)CSc2nnc3c(n2)[nH]c2ccccc23)CC1		active: 8.2 µM
N#Cc1ccccc1CSc1nc2ncc(Br)cc2[nH]1	inactive: 12.7%	
COCCNC(=O)Cn1ccc2cc(S(=O)(=O)N3CCCCCC3)ccc21	inactive: -3.89%	
COc1ccc(NC(=O)Cn2c(=O)n(CCC(=O)NCC3CCCO3)c(=O)c3cc(OC)c(OC)cc32)cc1 (stereo unspecified)	inactive: 0.0566%	
CCOc1ccc(CNC(=O)C2CCCN(c3nnc(C)c4c(C)n(-c5ccccc5)nc34)C2)cc1 (stereo unspecified)	inactive: -21.1%	
O=C(COc1ccccc1)Nc1nnc(S(=O)(=O)Nc2ccccc2)s1	inactive: -16.8%	
C[C@H]1c2cccc(O)c2C(O)=C2C(=O)C3(O)C(O)=C(C(N)=O)C(=O)[C@@H](N(C)C)[C@@H]3[C@@H](O)[C@@H]21 (stereo partly specified)	inactive: -12.9%	
CCc1nonc1NC(=O)c1oc2cc(C)c(C)cc2c1C	inactive: 2.77%	
O=C(CNS(=O)(=O)c1cccs1)N1CCN(c2ccccc2F)CC1	inactive: 12.3% [at 9.27 µM]	

SMILES	activity change, negative = inhibition	Potency
O=C(CCS(=O)(=O)c1cc2c(cc1Cl)NC(=O)CO2)NCc1ccccc1	inactive: 1.79%	
O=C(C[C@H]1C/C=C\CC[C@H](Cc2ccc(F)cc2)C(=O)OC[C@@H]2CCCN2C1=O)N[C@H](CO)Cc1ccccc1	inactive: 6.22%	
CN1CCN(CCCN2c3ccccc3Sc3ccc(Cl)cc32)CC1		inactive and active: 8.2 µM
CCCN1/C(=C(\C#N)C2=NS(=O)(=O)c3ccccc32)N(C)c2ccccc21	inactive: -0.921%	
COc1cccc(C(=O)Nc2nnc(S(=O)(=O)N3CCOCC3)s2)c1	inactive: 13.3%	
Cc1ccc(-c2noc(C3CCN(S(=O)(=O)c4ccc5c(c4)OCCO5)CC3)n2)o1		active: 6.51 µM
O=C(NCc1nc2ccccc2[nH]1)C1=C[C@H](c2ccc(C(F)(F)F)cc2)C[C@H](OCCCCO)O1	inactive: 4.78%	
Cc1ccc(NC(=O)CCS(=O)(=O)c2ccc3nc(C)sc3c2)cc1	inactive: -5.93%	
CN(C)CCNC(=O)c1cc2c(s1)-c1ccc(Cl)cc1SC2		active: 5.8 µM
Cc1ccc(NC(=O)NC(C)c2c(-n3cccc3)sc(C)c2C)c(C)c1 (stereo unspecified)		active: 18.4 µM
Cc1cccc(C)c1-n1c(SCC(=O)N2CC(=O)Nc3ccccc32)nc2ccccc2c1=O		active: 23.1 µM
O=C(NCc1ccccc1)C1=C[C@@H](c2ccc3c(c2)OCO3)C[C@@H](OCc2ccc(CO)cc2)O1	inactive: -7.71%	
CCN(C(=O)c1cc(S(=O)(=O)N2CCCCC2)c[nH]1)c1ccc(OC)cc1	inactive: -10.8%	
COC(=O)c1cccc(S(=O)(=O)N2CCOCC2)c1	inactive: -21.7%	
Cc1nc(-c2ccc(NC(=O)c3ccco3)cc2)cs1		active: 7.31 µM
C=CC[C@@H](CC(=O)N[C@@H](CO)Cc1ccccc1)C(=O)N[C@H](COC(=O)[C@@H](CC=C)Cc1ccc(F)cc1)Cc1ccccc1	inactive: 7.92%	
O=C(Cn1cccc1C(=O)c1ccccc1)NCc1ccc(Cl)cc1	inactive: 4.08%	
CCC(Oc1ccccc1)C(=O)Nc1nnc(S(=O)(=O)N2CCCC2)s1 (stereo unspecified)	inactive: 5.97%	
